According to PubChem BioAssay AID624417 (National Center for Advancing Translational Sciences (NCATS), 2012):
Hit rate of the full screen: of about 410,000 compounds, about 6,400 (1.6%) were called active. Inconclusive means that the source gave no clear call. Such entries were picked first, then a sample of the others. Calls come from the whole dose curve; as a rule, active = well fitted inhibition curve with a large enough effect; inconclusive = small, poorly fitted or top-dose-only effect; inactive = no such curve, though single readings can be large or run the other way. No potency is given beside an inconclusive call; the fits are too rough.

Molecular target: Glucagon-like peptide 1 receptor (Homo sapiens) (UniProt P43220)
UniProt P43220, sequence (P43220 whole entry, looked up): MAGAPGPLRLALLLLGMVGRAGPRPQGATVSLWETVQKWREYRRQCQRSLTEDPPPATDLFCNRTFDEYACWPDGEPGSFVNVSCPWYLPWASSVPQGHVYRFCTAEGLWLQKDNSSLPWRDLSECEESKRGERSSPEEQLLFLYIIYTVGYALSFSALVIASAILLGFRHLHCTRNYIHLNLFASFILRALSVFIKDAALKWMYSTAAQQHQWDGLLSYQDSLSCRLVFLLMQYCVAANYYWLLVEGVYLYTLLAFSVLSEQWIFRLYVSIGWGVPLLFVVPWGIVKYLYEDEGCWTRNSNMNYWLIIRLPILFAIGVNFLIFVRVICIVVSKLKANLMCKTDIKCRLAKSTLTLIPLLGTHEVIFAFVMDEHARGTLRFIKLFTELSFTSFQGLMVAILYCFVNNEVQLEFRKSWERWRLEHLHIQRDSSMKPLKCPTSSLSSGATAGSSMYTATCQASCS
Experiment: qHTS of GLP-1 Receptor Inverse Agonists (Inhibition Mode); note: nearly all actives have a fitted effect of over 55% in size
Settings: HEK293 GLP-1R CRE-luciferase, luminescence, 24 h, GLP-1R form is constitutively active; activity change, negative = inhibition: at 38.3 µM (top of the series) unless noted
Outline: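 GLP-1R inverse agonism mode: basal reporter luminescence in engineered HEK293 cells measured after one day of compound exposure at 37 deg C, with a 12 min room-temperature detection step.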
% is set by controls: 0 for no effect and ±100 for the full control effect; potency is the fitted concentration of half-maximal effect; tags give direction and shape of the fitted curve.

Compound	Potency	activity change, negative = inhibition
CCCCOC(=O)c1ccc(NC(=O)c2ccccc2OC)cc1	inconclusive [inhibitor, single point]	
CCOC(=O)c1cc(C)sc1NC(=O)C(c1ccccc1)c1ccccc1	inconclusive [inhibitor, full curve, poor fit]	
CCOC(=O)c1c(NC(=O)CSc2nnc3c(n2)[nH]c2ccccc23)sc2c1CCN(C)C2	inconclusive [inhibitor, single point]	
Cc1ccc(OCc2cc(C(=O)N3CCN(C4CCCC4)CC3)no2)cc1C	inconclusive [inhibitor, single point]	
Cc1ccccc1CC1(CO)CCCN(C(=O)c2ccccc2N(C)C)C1 (configuration not stated)	inconclusive [inhibitor, single point]	
Nc1ccn([C@@H]2O[C@H](CNCc3cnc(N4CCOCC4)nc3)[C@@H](O)[C@H]2O)c(=O)n1		inactive: 0.317%
COc1cccc(C(=O)c2c[nH]c(C(=O)NCc3ccco3)c2)c1		inactive: 7.13%
COc1ccccc1C(=O)/C=C/c1ccc(N2CCCCC2)c([N+](=O)[O-])c1	inconclusive [inhibitor, partial curve, poor fit]	
Cc1ccc(C(=O)C2CCN(C(=S)NCCCOC(C)C)CC2)cc1	inconclusive [inhibitor, partial curve, poor fit]	
Cc1onc(-c2c(F)cccc2Cl)c1C(=O)N(Cc1ccccc1)C(C)C	inconclusive [inhibitor, single point]	
Cc1cccc(N2CCN(C(=O)c3ccc(CNc4c(N5CCC(C)CC5)c(=O)c4=O)cc3)CC2C)c1 (configuration not stated)	inconclusive [inhibitor, single point]	
COc1ccc(OC)c(C2NC(=S)NC3=C2N2CCC3CC2)c1 (configuration not stated)	inconclusive [inhibitor, single point]	
CCN1C(=O)C(CC(=O)Nc2ccccc2)N(Cc2ccccn2)C1=S (configuration not stated)	inconclusive [inhibitor, single point]	
COc1ccc(/C=C2\SC(=Nc3ccccc3Cl)NC2=O)c(OC)c1	inconclusive [inhibitor, full curve]	
CCOC(=O)C1(CCCc2ccccc2)CCN(CC(O)CO)CC1 (configuration not stated)	inconclusive [inhibitor, single point]	
Cc1ccc(CNC(=O)c2cccc(OCc3c(C)noc3C)c2)cc1	inconclusive [inhibitor, single point]	
Cc1cc(C)n2c(Nc3cccc(C(F)(F)F)c3)c(-c3ccsc3)nc2n1	inconclusive [inhibitor, partial curve, poor fit]	
